Assay results: PubChem BioAssay (Tox21)
Values joined by “and” are separate entries in the source; they are usually repeats but may differ in a detail not shown here. Identical values can stand only once. The shares of active, inactive and inconclusive entries below differ from those in the screen. For some of these results: Potencies beside an inconclusive call are fits to weak or partial responses and may not hold up. Some structures have more than one record in an assay (separate samples or runs), and their calls can disagree. Active and inactive are the calls of the source. Unless noted, calls come from the whole dose curve.

Assays:
[1] = qHTS assay for small molecule agonists of the p53 signaling pathway (AID 651631); conditions: HCT-116 p53RE-bla reporter, beta-lactamase FRET ratio, 16 h; activation: at 73.3 µM (top of the series) unless noted; note: nearly all actives have a fitted effect of over 15% in size; for activation: % is set by controls: 0 for no effect and ±100 for the full control effect
Procedure, shortened: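 We treat p53RE-bla HCT-116 cells with compounds for 16 h at 37 °C, add LiveBLAzer B/G FRET substrate for 2 h at room temperature, and measure fluorescence intensity.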

[2] = qHTS assay for small molecule agonists of the p53 signaling pathway - cell viability (AID 651633); conditions: p53RE-bla HCT-116 viability, ATP luminescence, 16 h; series mostly up to 83.3 µM; note: nearly all actives have a fitted effect of over 30% in size
Procedure, shortened: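 p53RE-bla cells were treated with compound for 16 hours at 37 C. Cytotoxicity was then measured as CellTiter-Glo luminescence after 30 min at room temperature.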

[3] = qHTS assay for small molecules that induce genotoxicity in human embryonic kidney cells expressing luciferase-tagged ATAD5 - cell viability (AID 651634); conditions: HEK293T ATAD5-luc cells viability, CellTiter-Fluor, 15.5 h; series mostly up to 83.3 µM; note: nearly all actives have a fitted effect of over 25% in size
Procedure, shortened: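 Cytotoxicity counterscreen in HEK293T cells bearing an ATAD5-luciferase reporter: live-cell protease activity measured by CellTiter-Fluor fluorescence after 15.5 hr compound exposure.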

[4] = qHTS assay for small molecule disruptors of the mitochondrial membrane potential (AID 720635; active = well fitted curve in the direction sought with a large enough effect in the repeat runs; inconclusive = weak or mixed curves; inactive = no such curve, though single readings can be large; an effect the other way counts as inactive or inconclusive); conditions: HepG2 mitochondrial membrane potential, Mito-MPS dye ratio; ratio activity, negative = MMP loss: at 83.2 µM (top of the series) unless noted
Procedure, shortened: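 HepG2 cells exposed to compound 1 hr at 37C, then Mito-MPS dye 30 min. Ratio read of aggregate (540/590 nm) versus monomer (490/535 nm) fluorescence.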

[5] = qHTS assay for identifying genotoxic compounds that show differential cytotoxicity against isogenic chicken DT40 cell lines with known DNA damage response pathways - wild type cell line (AID 743012; active = well fitted curve in the direction sought with a large enough effect in the repeat runs; inconclusive = weak or mixed curves; inactive = no such curve, though single readings can be large; an effect the other way counts as inactive or inconclusive; note: nearly all actives have a fitted effect of over 60% in size; for activity change, negative = cytotoxicity: % is set by controls: 0 for no effect and ±100 for the full control effect); conditions: DT40 wild type chicken cells viability, CellTiter-Glo, 40 h
Procedure, shortened: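 Cells (DT40 wild type, 300/well) are treated with DMSO-dissolved compounds after a ~0.5 h pre-incubation and kept 40 h at 37 C/5% CO2. Viability is then measured by CellTiter-Glo luminescence following 30 min at room temperature.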

[6] = qHTS assay for small molecule disruptors of the mitochondrial membrane potential - cell viability (AID 720634); conditions: HepG2 viability, ATP luminescence (CellTiter-Glo), 1 h; series mostly up to 83.2 µM; note: nearly all actives have a fitted effect of over 20% in size
Procedure, shortened: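 After overnight attachment at 37 C, HepG2 cells received compound or DMSO vehicle for 1 hr. Viability is then taken from ATP-driven luminescence following a 30 min room-temperature CellTiter-Glo step.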

[7] = biological target: Glucocorticoid receptor (Homo sapiens) (UniProt P04150); assay: qHTS assay to identify small molecule antagonists of the glucocorticoid receptor (GR) signaling pathway (AID 720692; active = well fitted inhibition curve with a large enough effect in the signal ratio in the repeat runs, not every such curve was filed as active; inconclusive = weak or mixed curves, or effect the other way; inactive = no such curve, though single readings can be large or run the other way; the % refers to the signal ratio; for activity change, negative = inhibition: % is set by controls: 0 for no effect and ±100 for the full control effect); conditions: GR-bla HeLa, beta-lactamase FRET ratio, dexamethasone-stimulated, 18 h; activity change, negative = inhibition: at 58.5 µM (top of the series) unless noted
Procedure, shortened: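 Cells plated, rested 4 h at 37 C/5% CO2; compounds in DMSO pin-transferred; dexamethasone added to 5 nM final; 18 h at 37 C; B/G FRET substrate added, 2 h room temperature; fluorescence measured.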

[8] = qHTS assay to identify small molecule antagonists of the glucocorticoid receptor (GR) signaling pathway - cell viability counter screen (AID 720693; active = well fitted curve in the direction sought with a large enough effect in the repeat runs; inconclusive = weak or mixed curves; inactive = no such curve, though single readings can be large; an effect the other way counts as inactive or inconclusive; note: nearly all actives have a fitted effect of over 55% in size); conditions: GR-bla HeLa viability, CellTiter-Glo luminescence, 18 h, with 5 nM dexamethasone present; viability change, negative = cytotoxic: at 58.5 µM (top of the series) unless noted
[9] = qHTS assay for identifying genotoxic compounds that show differential cytotoxicity against isogenic chicken DT40 cell lines with known DNA damage response pathways - Rev3 mutant cell line (AID 743014; active = well fitted curve in the direction sought with a large enough effect in the repeat runs; inconclusive = weak or mixed curves; inactive = no such curve, though single readings can be large; an effect the other way counts as inactive or inconclusive; note: nearly all actives have a fitted effect of over 55% in size; for activity, negative = cytotoxicity: % is set by controls: 0 for no effect and ±100 for the full control effect); conditions: chicken DT40 Rev3-/- viability, CellTiter-Glo, 40 h; activity, negative = cytotoxicity: at 68.4 µM (top of the series)
[10] = biological target: Glucocorticoid receptor (Homo sapiens) (UniProt P04150); assay: qHTS assay to identify small molecule agonists of the glucocorticoid receptor (GR) signaling pathway (AID 720691; active = well fitted activation curve with a large enough effect in the signal ratio in the repeat runs, not every such curve was filed as active; inconclusive = weak or mixed curves, or effect the other way; inactive = no such curve, though single readings can be large or run the other way; the % refers to the signal ratio); conditions: GR-bla HeLa, beta-lactamase reporter ratio, 18 h; activation: at 62.4 µM (top of the series) unless noted
Procedure, shortened: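 Agonist mode in a HeLa line carrying a GRE-controlled beta-lactamase reporter. Compounds act for 18 h at 37 C before a 2 h room-temperature FRET substrate step and fluorescence reading.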

[11] = qHTS assay to identify small molecule antagonists of the androgen receptor (AR) signaling pathway - cell viability counter screen (AID 743033; active = well fitted curve in the direction sought with a large enough effect in the repeat runs; inconclusive = weak or mixed curves; inactive = no such curve, though single readings can be large; an effect the other way counts as inactive or inconclusive; note: nearly all actives have a fitted effect of over 45% in size); conditions: AR-bla HEK293 viability, CellTiter-Glo luminescence, 16 h; activity change, negative = cytotoxicity: at 58.5 µM (top of the series)
[12] = qHTS assay for identifying genotoxic compounds that show differential cytotoxicity against isogenic chicken DT40 cell lines with known DNA damage response pathways - Rad54/Ku70 mutant cell line (AID 743015; active = well fitted curve in the direction sought with a large enough effect in the repeat runs; inconclusive = weak or mixed curves; inactive = no such curve, though single readings can be large; an effect the other way counts as inactive or inconclusive; note: nearly all actives have a fitted effect of over 60% in size); conditions: DT40 Rad54/Ku70 mutant viability, CellTiter-Glo, 40 h; activity change, negative = cytotoxicity: at 66.8 µM (top of the series)
[13] = activity change, negative = cytotoxicity: at 68.4 µM (top of the series) unless noted
Potency is the fitted concentration of half-maximal effect; tags give direction and shape of the fitted curve or compound fluorescence and quenching.

Chain of UniProt P04150 (P04150 whole entry, looked up): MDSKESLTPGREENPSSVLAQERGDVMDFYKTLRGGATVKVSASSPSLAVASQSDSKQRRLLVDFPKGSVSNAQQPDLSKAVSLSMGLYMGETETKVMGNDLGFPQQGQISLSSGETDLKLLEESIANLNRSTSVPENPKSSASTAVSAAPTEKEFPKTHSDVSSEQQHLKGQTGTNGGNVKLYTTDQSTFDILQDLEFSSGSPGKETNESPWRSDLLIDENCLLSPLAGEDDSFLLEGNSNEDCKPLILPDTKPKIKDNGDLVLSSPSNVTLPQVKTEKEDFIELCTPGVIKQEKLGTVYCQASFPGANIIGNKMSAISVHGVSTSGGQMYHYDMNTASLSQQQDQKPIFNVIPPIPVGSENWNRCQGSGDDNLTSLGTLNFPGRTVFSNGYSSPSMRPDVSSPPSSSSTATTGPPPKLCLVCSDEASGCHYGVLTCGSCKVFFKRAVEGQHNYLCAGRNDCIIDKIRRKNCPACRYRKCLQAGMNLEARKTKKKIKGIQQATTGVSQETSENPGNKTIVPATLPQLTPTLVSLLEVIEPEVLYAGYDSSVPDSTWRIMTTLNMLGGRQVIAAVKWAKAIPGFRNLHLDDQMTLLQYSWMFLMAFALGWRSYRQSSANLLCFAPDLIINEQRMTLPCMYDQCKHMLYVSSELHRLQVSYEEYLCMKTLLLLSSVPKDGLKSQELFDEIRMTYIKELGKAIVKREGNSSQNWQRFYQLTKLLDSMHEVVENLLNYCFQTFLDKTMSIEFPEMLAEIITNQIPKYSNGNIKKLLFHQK

CCCSP(=O)(OCC)Oc1ccc(Br)cc1Cl (stereo unspecified)
Potency [1]: inconclusive: 29.7 µM [falling, partial curve] | Potency [2]: inconclusive: 33.3 µM [cytotoxic, single point] | Potency [3]: inconclusive: 29.7 µM [falling, partial curve, poor fit] | Potency [4]: active: 1050 nM | Potency [5, 13]: inconclusive: 33.3 µM [cytotoxic, single point]

Clc1ccccc1-c1ccccc1Cl
Potency [1]: inconclusive: 39.1 µM [activator] | Potency [2]: inconclusive: 87.6 µM [cytotoxic, partial curve, poor fit] | Potency [6]: inconclusive: 49.3 µM [cytotoxic, partial curve, poor fit] | activity change, negative = inhibition [7]: inconclusive: 5.07% [at 78.9 µM]

C[C@@H]1C[C@@H]([C@H](O)CC2CC(=O)NC(=O)C2)C(=O)[C@@H](C)C1
Potency [1]: active: 11.9 µM and inactive | Potency [2]: inconclusive: 0.531 µM [cytotoxic, partial curve, poor fit] | Potency [3]: active: 1.33 µM and active: 271 nM | Potency [8]: inconclusive: 0.425 µM [cytotoxic, partial curve, poor fit] | Potency [9]: active: 119 nM and active: 60.8 nM

C=C(C)C(=O)[O][Sn]([CH2]CCC)([CH2]CCC)[CH2]CCC
Potency [1]: inconclusive: 1.09 µM [cytotoxic, full curve] | Potency [2]: active: 0.611 µM | Potency [3]: active: 0.611 µM | Potency [6]: active: 3.86 µM | Potency [10]: inconclusive: 2.45 µM [cytotoxic, full curve] | Potency [7]: inconclusive: 2.45 µM [cytotoxic, full curve] | Potency [8]: active: 0.776 µM | Potency [11]: active: 0.776 µM

O=C(Nc1ccc2[nH]ccc2c1)c1cc2cc(F)ccc2n1Cc1cccc(F)c1
Potency [1]: inconclusive: 54.5 µM [cytotoxic] | Potency [2]: inconclusive: 68.6 µM [cytotoxic, single point] | Potency [3]: inconclusive: 54.5 µM [falling, partial curve, poor fit] | Potency [6]: inconclusive: 24.3 µM [cytotoxic, partial curve, poor fit] | Potency [4]: active: 686 nM | Potency [10]: inconclusive: 38.9 µM [cytotoxic, partial curve] | Potency [7]: inconclusive: 54.9 µM [cytotoxic] | Potency [8]: inconclusive: 54.9 µM [cytotoxic, single point]

Cc1c(COC(=O)[C@@H]2[C@H](/C=C(\Cl)C(F)(F)F)C2(C)C)cccc1-c1ccccc1
Potency [1]: inconclusive: 59.7 µM [activator, partial curve] and inconclusive: 8.61 µM [fluorescent, full curve] | Potency [2]: inconclusive: 29.9 µM [cytotoxic, partial curve, poor fit] and inconclusive: 30.5 µM [cytotoxic, partial curve] | Potency [6]: inconclusive: 15 µM [cytotoxic, partial curve, poor fit] | Potency [4]: active: 26.7 µM and active: 34.3 µM | Potency [8]: inconclusive: 43.5 µM [cytotoxic, partial curve, poor fit] | activity change, negative = cytotoxicity [5, 13]: inconclusive: -98.5% | activity change, negative = cytotoxicity ([5]; at 68.4 µM (top of the series)): inactive: 25.2% | Potency [9]: inactive and inconclusive: 30.5 µM [cytotoxic, partial curve]

C[C@@H]1O[C@@H](O[C@@H]2C=C3CC[C@@H]4[C@H](CC[C@]5(C)[C@@H](c6ccc(=O)oc6)CC[C@]45O)[C@@]3(C)CC2)[C@H](O)[C@H](O)[C@H]1O
Potency [1]: inconclusive: 0.0114 µM [fluorescent, full curve] | Potency [3]: active: 0.0227 µM | Potency [7]: active: 0.0574 µM | Potency [8]: active: 0.091 µM | Potency [12]: active: 0.127 µM | Potency [11]: active: 0.0057 µM

CC(=O)C(Cl)(Cl)Cl
Potency [1]: inconclusive: 1.32 µM [cytotoxic, full curve] | Potency [3]: active: 13.2 µM | Potency [4]: active: 743 nM | activity change, negative = inhibition [7]: inconclusive: -40.1% | Potency [5, 13]: active: 13.2 µM | Potency [11]: active: 10.6 µM

CC(C)(c1ccccc1)c1ccc(O)c(C(C)(C)c2ccccc2)c1
Potency [1]: inconclusive: 13.6 µM [cytotoxic, full curve] and inconclusive: 48.6 µM [cytotoxic, partial curve] | Potency [3]: inconclusive: 68.6 µM [falling, single point] | Potency [6]: inconclusive: 60.6 µM [cytotoxic, partial curve, poor fit] and inconclusive: 77 µM [cytotoxic, partial curve, poor fit] | Potency [4]: active: 1.52 µM and active: 2.43 µM | Potency [10]: inconclusive: 15.3 µM [cytotoxic, full curve] and inconclusive: 12.3 µM [cytotoxic, full curve] | Potency [7]: inconclusive: 38.5 µM [cytotoxic, partial curve] and inconclusive: 54.9 µM [cytotoxic, single point] | Potency [8]: active: 21.7 µM and active: 24.5 µM | Potency [11]: active: 48.5 µM and active: 49 µM

C[C@H]1CCCC(=O)CCC/C=C/c2cc(O)cc(O)c2C(=O)O1
Potency [1]: active: 9.33 µM and active: 22.4 µM | Potency [2]: inconclusive: 12.6 µM [cytotoxic, partial curve, poor fit] | Potency [6]: active: 11.7 µM and active: 20 µM | Potency [8]: inconclusive: 47.2 µM [cytotoxic] | Potency [11]: inconclusive: 22.6 µM [cytotoxic, partial curve, poor fit]

CCCCCCCCc1ccc(O)cc1
Potency [1]: inconclusive: 21.7 µM [cytotoxic, full curve] | Potency [2]: active: 12.3 µM | Potency [6]: active: 15.4 µM | Potency [7]: inconclusive: 49.3 µM [falling, partial curve, poor fit] | Potency [8]: inconclusive: 62 µM [cytotoxic] | Potency [9]: inconclusive: 26.7 µM [cytotoxic] | Potency [11]: inconclusive: 34.9 µM [cytotoxic, partial curve]

CCC(=O)O[C@H]1CC[C@H]2[C@@H]3CCC4=CC(=O)CC[C@]4(C)[C@H]3CC[C@]12C
Potency [1]: inconclusive: 68.6 µM [cytotoxic] | Potency [2]: active: 61.1 µM | Potency [10]: inconclusive: 24.5 µM [cytotoxic] | Potency [7]: active: 5.12 µM and active: 4.9 µM | Potency [8]: inconclusive: 54.9 µM [cytotoxic, single point] | Potency [11]: active: 49 µM

Oc1ccc(C2(c3ccc(O)cc3)c3ccccc3-c3ccccc32)cc1
Potency [1]: active: 61.1 µM | Potency [3]: inconclusive: 61.1 µM [falling, single point] | Potency [6]: inconclusive: 68.6 µM [cytotoxic] | Potency [4]: active: 61100 nM | Potency [10]: inconclusive: 54.9 µM [single point] | Potency [7]: inconclusive: 61.6 µM [cytotoxic] | Potency [8]: inconclusive: 61.6 µM [cytotoxic, single point] | Potency [9]: active: 43.3 µM | Potency [11]: active: 54.9 µM

O=[N+]([O-])c1ccc(O)c([N+](=O)[O-])c1
Potency [1]: inconclusive: 43.5 µM [falling, partial curve] | Potency [3]: active: 27.4 µM and active: 27.3 µM | Potency [6]: active: 10.9 µM | Potency [4]: active: 689 nM and active: 545 nM | Potency [5, 13]: inactive and inconclusive: 68.6 µM [cytotoxic] | Potency [9]: inconclusive: 68.6 µM [cytotoxic, single point] | Potency [11]: inconclusive: 6.95 µM [cytotoxic, full curve]

O=C(Nc1ccccc1)Nc1ccnc(Cl)c1
Potency [1]: inconclusive: 54.5 µM [falling, partial curve] | Potency [3]: inconclusive: 68.6 µM [falling, single point] | Potency [4]: active: 386 nM | activation [10]: inconclusive: -12.9% | Potency [7]: active: 54.9 µM | Potency [8]: inconclusive: 61.6 µM [cytotoxic, single point] | Potency [9]: active: 15.4 µM | Potency [11]: active: 38.9 µM

ClC1=C(Cl)C2(Cl)C3C(Cl)C=CC3C1(Cl)C2(Cl)Cl (stereo unspecified)
Potency [1]: inconclusive: 68.9 µM [single point] and inconclusive: 68.6 µM [cytotoxic] | Potency [3]: inconclusive: 68.9 µM [falling, single point] | Potency [6]: inconclusive: 61.4 µM [cytotoxic, partial curve] and inactive | Potency [4]: active: 27.4 µM and active: 54.5 µM | Potency [10]: inconclusive: 55.2 µM [cytotoxic] and inconclusive: 54.9 µM [cytotoxic, single point] | Potency [7]: inconclusive: 55.2 µM [cytotoxic] | activity change, negative = inhibition [7]: inconclusive: -16.9% | Potency [8]: inconclusive: 55.2 µM [cytotoxic, single point] | Potency [9]: inconclusive: 61.4 µM [cytotoxic] | Potency [12]: inconclusive: 68.9 µM [cytotoxic, single point] | Potency [11]: inactive

S=C(SSC(=S)N1CCCCC1)N1CCCCC1
activation [1]: inconclusive: 11.2% | Potency [2]: inconclusive: 0.119 µM [cytotoxic, full curve, poor fit] | Potency [4]: inactive | activation [10]: inconclusive: -0.182% [phenotype inactive] | Potency [5, 13]: active: 0.531 µM | Potency [11]: active: 6.01 µM

CCC[CH2][Sn]([Cl])([Cl])[CH2]CCC
Potency [1]: inconclusive: 2.2 µM [cytotoxic, full curve] and inconclusive: 770 nM [cytotoxic, full curve] | Potency [2]: active: 2.2 µM and active: 969 nM | Potency [10]: inconclusive: 15.7 µM [cytotoxic, full curve] and inconclusive: 19.5 µM [cytotoxic, partial curve] | Potency [8]: active: 6.24 µM and active: 6.16 µM
